According to the RNAGym collection of RNA variant scans (doi:10.1093/nar/gkz1192):
Read counts are not given, so values of variants with three or more changes are uncertain.

B1: CPEB3 Ribozyme (parent)
chain: UAACAGGGGGCCACAGCAGAAGCGUUCACGUCGCAGCCCCUGUCAGAUUCUGGUGAAUCUGCGAAUUCUGCUGUAUAUCUC

Variants of: B1
Assay: self-cleavage, relative activity (ratio to wild type); higher = more cleavage; in vitro, sequencing
Outline: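 Barcoded CPEB3 ribozyme mutants, produced by rounds of error-prone PCR, self-cleaved while being transcribed with T7 RNA polymerase for 5 hours at 37°C and during a subsequent 15 min DNase I step before EDTA was added. Sequencing of template-switched cDNA on Illumina gave cleaved and total reads, and DNA sequencing assigned barcodes to variants. Each variant's relative activity is its cleaved/total read fraction divided by the unmutated ribozyme's fraction, averaged across three batches. A variant needed a minimum of 5 reads.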

Variant	self-cleavage
UAGCUGGGGGCCACAGCAGAAGCGAUCACGUCGCAGCCCCUGUAAGAUUCUGGCGAAUCUGCGAAUUGUGCUGUAUAUCUC [A3G A5U U25A C44A U54C C68G]	0.2
UAGCUGGGGGCCACAGCAGAAGCGAUCACGUCGCAGCCCCUGUCAGAUUCUGGAGAGUCUGCGAAUUCUGCUGUAUAACCC [A3G A5U U25A U54A A57G U78A U80C]	0.14
UAGCUGGGGGCCACAGCAGAAGCGCUCACGUCGCAGCCCCUGUCAGAUUCUGGUGAAUCUGCGAAUUCUGCUGUAUCCCUC [A3G A5U U25C A77C U78C]	0.55
UAGCUGGGGGCCACAGCAGAAGCGCCCACGUCGCAGCCCCUGUCGGAUUUUGGUGGAUCUGCGAAUUCUGCUGUAUAUCUC [A3G A5U U25C U26C A45G C50U A56G]	0
UAGCUGGGGGCCACAGCAGAAGCGCCCACGUCGCAGCCCCAGUCAGAUUCUGGUGAAUCUGCGAAUUCUGCUGUAUAUCUC [A3G A5U U25C U26C U41A]	0.44
UAGCUGGGGGCCACAGCAGAAGCGUCCACGUCGCAGCCCCUGUCAGAUUCUGGUGAAUCUGCGAAUUCUGCUGUAUAUCUC [A3G A5U U26C]	0.63
UAGCUGGGGGCCACAGCAGAAGCGUCCACGUCGCAGCCCCUGUCAGAGUCUGGUGACUCUGCGAAUUCUGCUGUAUAUCUC [A3G A5U U26C U48G A57C]	0.43
UAGCUGGGGGCCACAGCAGAAGCGUUCACGCCGCAGCCCCUGUCAGAUUCUGGCGAAUCUGCGGAUUCUGCUGUAUAUCUC [A3G A5U U31C U54C A64G]	0.66
UAGCUGGGGGCCACAGCAGAAGCGUUCACGUCGCAGCCCCCGUCAGAUUCUGGUGAGUCUGCGAAUUCUGCUGUAUAUCUC [A3G A5U U41C A57G]	0.98
UAGCUGGGGGCCACAGCAGAAGCGUUCACGUCGCAGCCCCCGUCAGAUUCUGGUGAAUCUGCGAAUUCUGCUGUAUACCUC [A3G A5U U41C U78C]	1.06
UAGCUGGGGGCCACAGCAGAAGCGUUCACGUCGCAGCCCCUGCCAGAUUCUGGUGGGUCUGCGAAUUCUGCUGUAUAUCUC [A3G A5U U43C A56G A57G]	0.35
UAGCUGGGGGCCACAGCAGAAGCGUUCACGUCGCAGCCCCUGUCAGAUCCUGGUGAACCUGCGAAUCCUGCUGUAUAACUC [A3G A5U U49C U58C U67C U78A]	0.13
UAGCUGGGGGCCACAGCAGAAGCGUUCACGUCGCAGCCCCUGUCAGAUUCUGGUGAAUCCGCGAAUUCUGCUGUAUAUCUC [A3G A5U U60C]	0.6
UAGCUGGGGGCCACAGCAGAAGCGUUCACGUCGCAGCCCCUGUCAGAUUCUGGUGAAUCUGCGAAUUCUGCCGUAUAUCUC [A3G A5U U72C]	0.33
UAGCUGGGGGCCACAGCAGAAGCGUUCACGUCGCAGCCCCUGUCAGAUUCUGGUGAAUCUGCGAAUUCUGCUGUAUAUCAC [A3G A5U U80A]	1.12
UAGCAGGGGGCCCCGGCGGAAGCGUUCACGUCGCAGCCCCUGUCAGAUUCUGGUGAAUCUGCGAAUUCUGCUGUAUAUCUC [A3G A13C A15G A18G]	0.85
UAGCAGGGGGCCCCUGCAGAAGCGUUCACGUUGCGGCCCCUGUCGGAUUCUGGUGAAUCUGCGAAUUCUGCUGUAUAUCCC [A3G A13C A15U C32U A35G A45G U80C]	0.18

Variant	self-cleavage
UAGCAGGGGGCCCCAGCCGAAGCGUUCACGUCGCAGCCCCUGUCAGAUUCUGGUGAAUCCGCGAACUCUGCUGUAUAUCUC [A3G A13C A18C U60C U66C]	0.35
UAGCAGGGGGCCCCAGCAGUAGCGUUCACGUCGCAGCCCCUGUCAGAUUCUGGUGAAUCUGCGAAUUCUGCUGUAUUUCUC [A3G A13C A20U A77U]	0.21
UAGCAGGGGGCCCCAGCAGAAGUGUUCACGUCGCAGCCCCUGUCAGAUUCUGGUGAAUCUGCGAAUUCUGCUGUAUAUCUC [A3G A13C C23U]	0.15
UAGCAGGGGGCCCCAGCAUAAGCGUUCACGUCGCAGCCCAUGUCAGAUUCUGGUGAAUCUGCGAAUUCUGCUGUAUAUCUC [A3G A13C G19U C40A]	0.13
UAGCAGGGGGCCCCAGCAGAAGCGUUCACGUCGCAGCCCCUGCCAGGUACUGGUGAAUCUGCGAAUUCUACUGUAUAUCUC [A3G A13C U43C A47G U49A G70A]	0.22
UAGCAGGGGGCCCCAGCAGAAGCGUUCACGUCGCAGCCCCUGUCAGAUUCUGGUGAAUCAGCGGUUUCUGCUGUAUAUCUC [A3G A13C U60A A64G A65U]	0.3
UAGCAGGGGGCCCCAGCAGAAGCGUUCACGUCGCAGCCCCUGUCAGAUUCUGGUGAAUCCGCGAAUUCUGCUGUAUAUCUC [A3G A13C U60C]	0.58
UAGCAGGGGGCCGCCGCAGAAGCGCUCAUGUCGCAGCCCAUGUCAGAUUCUGGUGAAUCUGCGAAUUCUGCUGUAUAUCCC [A3G A13G A15C U25C C29U C40A U80C]	0.12
UAGCAGGGGGCCGCGGCAGAAGCGUUCACGUCGCAGCCCCUGUCAGAUUCUGGUGAGUCUGCGAAUUCUGCUGAAUAUCUC [A3G A13G A15G A57G U74A]	0.14
UAGCAGGGGGCCGCGGAAGAAGCGUUCACGUCGCAGCCCCUGUCAGAUUCUGGUGAAUCUGCGGAUUCUGGUAUAUAUCUC [A3G A13G A15G C17A A64G C71G G73A]	0.06
UAGCAGGGGGCCGCGGCAGAAGCGCCCACGUCACAGCCCCUGUCAGAUUCUGGUGAAUCUGCGAAUUCUGCUGUAUAUCCC [A3G A13G A15G U25C U26C G33A U80C]	0.12
UAGCAGGGGGCCGCGGCAGAAGCGUUCACGUCGCAGCCCCUGUCAGAUUCUGGCGAAUCUGCGAAUUCUGCUGUAUUUCUC [A3G A13G A15G U54C A77U]	0.83
UAGCAGGGGGCCGCGGCAGAAGCGUUCACGUCGCAGCCCCUGUCAGAUUCUGGUGAAUCUGCGAAUUCUGCUGAGUAUCUC [A3G A13G A15G U74A A75G]	0.14
UAGCAGGGGGCCGCUGCAGUAGCGUUCACGUCGCAGCCCCUGUCAGAUCCUGGUGAAUCUGCGUAUUCUGCUGUAUAUCUC [A3G A13G A15U A20U U49C A64U]	0.33
UAGCAGGGGGCCGCUGCAGAAGCGGUCACGUCGCAGCCCCCGACAGUUUCUGGUGAAUCUGCGAAUUCUGCUGUAUAUCUC [A3G A13G A15U U25G U41C U43A A47U]	0.08
UAGCAGGGGGCCGCUGCAGAAGCGUACACGUCGUAGCCCCUGUCAGAUUCUGGUGAAUCUGCGAAUUCUGCUGUAUAUCUC [A3G A13G A15U U26A C34U]	0.34
UAGCAGGGGGCCGCAGCGGAAGCGUUCACGUCGCAGCCCCUGUCAGAUUCUGGUGAAUCUGCGAAUUCUGCUGUAUAUCUU [A3G A13G A18G C81U]	0.54
